Test results reported in the antibiotic and cytotoxicity screens of Wong et al. (2023).
The other results are listed elsewhere or left out.

What follows are compounds tested on HSkMC (human skeletal muscle cells) (assay: cytotoxicity call (relative viability < 0.9)). Details: 10 µM.

Structure (SMILES)	cytotoxicity call
O=C(C[C@@H]1CC[C@@H](NS(=O)(=O)c2ccc(F)cc2)[C@H](CO)O1)N1CCC(Cc2ccccc2)CC1	inactive
C[C@@H]1CCCCO[C@@H](CN(C)Cc2ccccc2)[C@@H](C)CN([C@H](C)CO)C(=O)c2cc(NC(=O)Nc3ccc(C(F)(F)F)cc3)ccc2O1	inactive
CCOC(=O)c1c(CNCCN(CC)CC)n(-c2ccccc2)c2cc(Br)c(OC)cc12	inactive
Cc1noc(C)c1NC(=O)Nc1ccc2c(c1)C(=O)N([C@@H](C)CO)C[C@@H](C)[C@H](CN(C)C(=O)C1CCCCC1)OCCCC[C@H](C)O2	inactive
COCCOC(=O)N1C(=O)[C@@]2(c3cc(C#Cc4ccc(OC)cc4)ccc31)[C@H](C(=O)N1CCc3cc(OC)c(OC)cc3C1)[C@H]1C(=O)O[C@H](c3ccccc3)[C@H](c3ccccc3)N1[C@@H]2c1ccc(O)cc1	inactive
CCOC(=O)N(C)C[C@@H]1OCc2cn(nn2)CCCC(=O)N([C@H](C)CO)C[C@H]1C	inactive
C[C@@H]1CCCCO[C@@H](CN(C)S(=O)(=O)c2cccs2)[C@H](C)CN([C@H](C)CO)C(=O)c2cc(NC(=O)Nc3cccc4ccccc34)ccc2O1	inactive
COCCNC(=O)C[C@H]1CC[C@@H]2[C@H](COC[C@@H](O)CN2S(=O)(=O)c2ccccc2C)O1	inactive
COC(=O)[C@@H]1[C@@H](CO)[C@@H]2Cn3c(ccc(-c4ccccc4)c3=O)[C@@H]2N1S(C)(=O)=O	inactive
C[C@@H]1CN([C@@H](C)CO)C(=O)c2cc(NC(=O)Cc3ccccc3)ccc2O[C@@H]1CN(C)Cc1ccc(C(=O)Nc2ccccc2N)cc1	inactive
CCOC(=O)[C@H]1C/C=C/C[C@H](C(=O)OCC)C(=O)O[C@H]2[C@@H](OC)O[C@H](COC(=O)NCCCCCC(=O)NO)[C@@H](OC(=O)Nc3ccccc3)[C@@H]2OC1=O	inactive
Brc1ccc(-c2cc3n(c2)CCc2ccccc2-3)cc1	inactive
C[C@@H]1CN([C@H](C)CO)C(=O)Cc2cc(NS(C)(=O)=O)ccc2O[C@H]1CN(C)S(=O)(=O)c1cn(C)cn1	inactive
C[C@@H]1CN([C@H](C)CO)C(=O)c2cc(NC(=O)C3CCCCC3)ccc2O[C@H]1CN(C)C(=O)Nc1ccc(C(F)(F)F)cc1	inactive
Cc1ccc(S(=O)(=O)Nc2ccc3c(c2)CC(=O)N([C@@H](C)CO)C[C@H](C)[C@H](CN(C)CC2CC2)O3)cc1	inactive
CNC[C@@H]1Oc2cc(C#CCN(C)C)ccc2S(=O)(=O)N([C@@H](C)CO)C[C@@H]1C	inactive
C[C@H](CO)N1C[C@H](C)[C@H](CN(C)C(=O)Nc2ccc3c(c2)OCO3)Oc2ccc(NC(=O)c3ccncc3)cc2CC1=O	inactive
C[C@H](CO)N1C[C@H](C)[C@@H](CN(C)C)OCCCC[C@H](C)Oc2ccc(NS(=O)(=O)c3cn(C)cn3)cc2C1=O	inactive
COc1ccc(CN(C)C[C@H]2OCCCC[C@@H](C)Oc3ccc(NC(=O)CCCCCC(=O)Nc4ccccc4N)cc3C(=O)N([C@H](C)CO)C[C@@H]2C)cc1	inactive
C[C@@H]1CN([C@H](C)CO)C(=O)c2cccc(NC(=O)c3ccc(-c4nccs4)cc3)c2O[C@@H]1CN(C)Cc1ccc(C(=O)Nc2ccccc2N)cc1	inactive

Structure (SMILES)	cytotoxicity call
O=C(C[C@H]1CC[C@@H]2[C@H](COC[C@@H](O)CN2S(=O)(=O)c2ccccc2)O1)N1CCOCC1	inactive
COc1cccc(S(=O)(=O)N2C[C@H](O)COC[C@@H]3O[C@@H](CC(=O)N4CCN(c5ccccc5)CC4)CC[C@H]32)c1	inactive
CC(=O)N1CCC[C@H]1C(=O)O	inactive
O=C(C[C@H]1CC[C@@H]2[C@H](COC[C@H](O)CN2C(=O)c2cccnc2)O1)NCC1CC1	inactive
C[C@@H](O)Cn1cnc2c1c(=O)n(C)c(=O)n2C	inactive
C[C@H]1CN([C@@H](C)CO)C(=O)c2cccc(NC(=O)C3CCOCC3)c2O[C@@H]1CN(C)Cc1ccncc1	inactive
Cc1noc(C)c1NC(=O)Nc1ccc2c(c1)C(=O)N([C@@H](C)CO)C[C@@H](C)[C@H](CN(C)S(=O)(=O)c1ccccc1)OCCCC[C@H](C)O2	inactive
CN1CCN(CCO)C(=O)C12CCN([C@H]1CCOC1)CC2	inactive
Cc1cc(C(=O)Nc2cccc3c2O[C@@H](CN(C)S(=O)(=O)c2ccc(F)cc2)[C@@H](C)CN([C@H](C)CO)C3=O)n(C)n1	inactive
COc1ccc2c3c([nH]c2c1)[C@H](CO)N(C[C@]13CCN(CC1)C(=O)Nc1ccccc1)C(=O)Nc1ccc(cc1)F	inactive
C[C@@H]1CN([C@H](C)CO)C(=O)c2cc(NC(=O)Nc3ccccc3)ccc2O[C@H]1CN(C)CC1CCCCC1	inactive
C[C@@H]1CN([C@@H](C)CO)C(=O)c2cc(NC(=O)NC3CCCCC3)ccc2O[C@@H](C)CCCCO[C@H]1CN(C)Cc1ccc(C(=O)O)cc1	inactive
C[C@@H]1CN([C@@H](C)CO)C(=O)c2cc(NS(=O)(=O)c3cccs3)ccc2O[C@@H]1CN(C)Cc1ccc(Oc2ccccc2)cc1	inactive
C=CCC[C@H](Cc1ccc(F)cc1)C(=O)OC[C@H]1CCCN1C(=O)[C@H](CC=C)CC(=O)N(CCO)Cc1ccccc1	inactive
C[C@H]1CN([C@@H](C)CO)C(=O)c2cccc(NC(=O)C3CCCCC3)c2O[C@H]1CN(C)S(=O)(=O)c1cn(C)cn1	inactive
C[C@@H]1CN([C@@H](C)CO)C(=O)c2cc(NC(=O)Cn3cnnn3)ccc2O[C@@H]1CN(C)C(=O)Nc1ccc(F)cc1	inactive
COCc1cn([C@H]2C[C@H](O)[C@@H](CO)O2)c(=O)[nH]c1=O	inactive
O=C(N/N=C/[C@@H](O)[C@@H](O)[C@H](O)[C@H](O)CO)c1ccccn1	inactive
COc1ccc(NC(=O)Nc2ccc3c(c2)[C@H]2C[C@@H](CC(=O)N4CCN(C)CC4)O[C@@H](CO)[C@H]2O3)cc1	inactive
C[C@H](CO)N1C[C@H](C)[C@H](CN(C)CC2CCCCC2)OCCCC[C@H](C)Oc2ccc(NC(=O)Nc3ccccc3)cc2C1=O	active
